# PubChem BioAssay AID1508642 (National Center for Advancing Translational Sciences (NCATS), 2021)
# The campaign covered roughly 43,000 compounds. About 200 (0.47%) were called active. Not shown: some 12% with an inconclusive outcome. Calls follow the shape of the dose curve; as a rule, active = well fitted cell-killing curve with a large enough effect; inconclusive = small, poorly fitted or top-dose-only effect, or effect the other way; inactive = flat fitted curve, though single readings scatter. The list shows a part of the results.
# Experiment: Cell viability qHTS assay in S16 Pmp22-F2sN cells; also: nearly all actives have a fitted effect of over 65% in size
# Conditions: S16 Pmp22-F2sN Schwann cells viability, CellTiter-Glo, 24 h; series mostly up to 57.5 µM; activity change, negative = cytotoxicity: at the top concentration
# In short: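 Used to flag compounds lowering reporter output through toxicity, this quantitative HTS measures ATP-based CellTiter-Glo luminescence in S16 Pmp22-F2sN Schwann cells after 24 h compound exposure at 37C.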
# % is scaled to controls: 0 for no effect and ±100 for the full control effect.
row,SMILES,"activity change, negative = cytotoxicity"
1,CC(C)(C)OC(=O)N1CCC(c2c(C(=O)N3CCN(C(=O)c4ccco4)CC3)cnn2-c2ccccc2Cl)CC1,inactive: 7.89%
2,COCCCNC(=O)c1ccc2c(c1)NC(=O)C(C(C)C)N2 (configuration not stated),inactive: 8.42%
3,COc1ccccc1NC(=O)c1c(NC(=O)c2ccccc2Cl)sc2c1CCC2,inactive: 8.84%
4,CCOc1ccccc1CNC(=O)CN1C(=O)CCc2cc(S(=O)(=O)N3CCCCC3)ccc21,inactive: 18.9%
5,Cc1cccc(OCC(=O)Nc2ccc3nc(Nc4cccc(Cl)c4)cc(C)c3c2)c1,inactive: 18.8%
6,COc1ccc(CN2C(=O)C(NC(=O)c3ccccc3OC)(C(F)(F)F)N=C2c2ccccc2)cc1 (configuration not stated),inactive: 10.3%
7,CCc1ccc(NC(=O)CCn2cnc3ccccc3c2=O)cc1,inactive: -2.43%
8,CCc1ccc(S(=O)(=O)c2nnn(-c3cccc(C)c3)c2N)cc1,inactive: 21.4%
9,CCOc1ccc(CNC(=O)CCCn2c(=O)c3cccn3c3ccc(F)cc32)cc1,inactive: 21.9%
10,Cn1c(=O)c(=O)n(C)c2cc(NC(=O)c3ccccc3Br)ccc21,inactive: -2.11%
11,Cc1ccc(-n2nc(C)c3c(C(=O)Nc4ccc(Br)c(C)c4)cc(C)nc32)cc1,inactive: 18.6%
12,COc1ccccc1Nc1ncnc2c1nc1n2CCCC1,inactive: 11.3%
13,Cc1ccc(-c2nc3cccnc3s2)cc1NC(=O)Cc1ccccc1,inactive: -15.3%
14,COc1ccc(NC(=O)Cn2ccn(-c3ccccc3)c(=O)c2=O)cc1,inactive: 1.15%
15,COc1ccc(CCC(=O)NCc2ccc3c(c2)CCN3C(=O)c2ccc(C)cc2)cc1,inactive: 16%
16,COc1cccc(-c2nc(SCC(=O)N3CCc4ccccc43)c3c(=O)n(C)c(=O)n(C)c3n2)c1,inactive: -5.01%
17,CCOCCCn1c(=N)c(C(=O)NCC2CCCO2)cc2c(=O)n3cc(C)ccc3nc21 (configuration not stated),inactive: 1.72%
18,COCCNC(=O)CSc1nc(-c2ccc(C)cc2)nc2c1c(=O)n(C)c(=O)n2C,inactive: 17.9%
19,COC(=O)C1=C(C)NC(=O)C1(NC(=O)c1ccccc1C)C(F)(F)F (configuration not stated),inactive: 0.93%
20,Cc1cc(C)cc(NC(=O)C2(c3cccs3)CCOCC2)c1,inactive: 19%
21,COc1ccccc1CNC(=O)Cn1nc(C)c2nn(-c3ccc(Cl)cc3)c(C)c2c1=O,inactive: 2.42%
22,CC(C)c1ccc(Nc2ncnc3c2c(-c2ccccc2)cn3-c2ccccc2)cc1,inactive: 0.165%
23,CCCCOc1ccc(C2=NC(c3ccccc3)=Nc3ccc(OC)cc3N2)cc1,inactive: -18.4%
24,Cn1c(=O)c2c(-c3ccccc3Br)n(CCc3ccccc3)cc2n(C)c1=O,inactive: -5.02%
25,Clc1ccccc1Cc1cn2cc(-c3ccccc3)nc2s1,inactive: 19.7%
26,CCc1ccc(NC(=O)CSc2nnc(-c3cc4occc4n3C)n2-c2ccccc2C)cc1,inactive: -17.9%
27,C=CCc1c(C)nc2nc(SCC(=O)Nc3ccc(OCC)cc3)nn2c1C,inactive: 9.09%
